Reference: article PMC4336329 (PLoS ONE, 2015)
The whole screen tested about 310,000 compounds, of which about 14,000 (4.5%) showed an effect of 50% or more. Effects have a minus sign here. Some of the results follow.

Target: human ether-à-go-go-related gene (hERG) potassium channel (human, UniProt Q12809)
Assay: primary screen, population patch clamp on CHO cells stably expressing hERG
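Note: peak tail current of the secondary pulse compared with the same well before compound.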

Sequence of human ether-à-go-go-related gene (hERG) potassium channel (Q12809 whole entry, looked up): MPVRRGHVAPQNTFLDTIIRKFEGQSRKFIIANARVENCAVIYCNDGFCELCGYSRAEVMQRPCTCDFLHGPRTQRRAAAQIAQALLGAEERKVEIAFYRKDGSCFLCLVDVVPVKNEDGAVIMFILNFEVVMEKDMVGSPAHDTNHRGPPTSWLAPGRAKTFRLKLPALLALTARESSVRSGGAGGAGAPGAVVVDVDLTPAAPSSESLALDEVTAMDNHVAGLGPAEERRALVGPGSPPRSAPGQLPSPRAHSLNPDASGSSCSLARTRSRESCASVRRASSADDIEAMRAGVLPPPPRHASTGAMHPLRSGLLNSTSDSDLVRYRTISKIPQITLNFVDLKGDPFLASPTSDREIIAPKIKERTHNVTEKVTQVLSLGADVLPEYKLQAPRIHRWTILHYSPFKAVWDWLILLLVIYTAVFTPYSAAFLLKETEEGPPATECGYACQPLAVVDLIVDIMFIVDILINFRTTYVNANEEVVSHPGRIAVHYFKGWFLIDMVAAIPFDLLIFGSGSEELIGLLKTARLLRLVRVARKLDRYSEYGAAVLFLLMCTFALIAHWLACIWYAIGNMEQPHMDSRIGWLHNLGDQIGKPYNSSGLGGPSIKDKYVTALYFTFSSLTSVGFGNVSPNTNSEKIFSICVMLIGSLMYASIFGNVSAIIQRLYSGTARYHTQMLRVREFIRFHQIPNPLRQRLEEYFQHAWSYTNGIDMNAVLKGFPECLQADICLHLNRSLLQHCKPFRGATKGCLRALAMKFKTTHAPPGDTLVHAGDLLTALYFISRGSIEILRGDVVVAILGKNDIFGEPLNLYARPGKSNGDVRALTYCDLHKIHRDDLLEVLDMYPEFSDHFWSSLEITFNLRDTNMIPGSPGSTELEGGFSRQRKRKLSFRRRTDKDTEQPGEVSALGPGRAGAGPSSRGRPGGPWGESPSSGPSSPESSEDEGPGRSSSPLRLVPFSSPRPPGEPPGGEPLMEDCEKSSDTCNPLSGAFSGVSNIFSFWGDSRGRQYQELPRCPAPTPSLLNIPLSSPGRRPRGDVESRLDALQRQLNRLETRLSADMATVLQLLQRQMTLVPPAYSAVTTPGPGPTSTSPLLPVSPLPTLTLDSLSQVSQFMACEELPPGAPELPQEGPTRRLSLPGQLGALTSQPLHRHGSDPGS

SMILES | hERG current change (%, negative = inhibition) at 10uM [%]
O=[N+]([O-])c1cc(S(=O)(=O)NC2=NCCCCC2)ccc1NCC1CCCCC1 | -19.9
O=c1[nH]nc(Cc2ccc(Cl)cc2Cl)c2ccccc12 | 12.1
Cc1ccc(C)n1CCN1CCN(C(=O)c2ccco2)CC1 | 4.13
O=S(=O)(c1cccc2nsnc12)N1CCCC1 | 3.86
Cc1c(C(=O)N2CCNCC2)oc2ccccc12.Cl | 14.5
O=C(NCn1cnccc1=O)c1ccccc1 | 21.2
CC(CC(=O)O)CC(=O)Nc1cc(C(F)(F)F)cc(C(F)(F)F)c1 (stereo not drawn) | 31
CCO/C(C)=N/n1c2nc3ccccc3nc2c2c(=O)n(C3CCCC3)c(C)nc21 | 7.29
Cn1c(O)c(/C=C2\C=Nc3ccccc32)c(=O)n(C)c1=O | 15.4
Cc1ccc(NC(=O)Nc2nc(-c3ccc(C)s3)cs2)cc1 | -4.11
O=C(Nc1ccc(S(=O)(=O)NC2=NCCCCC2)cc1)c1ccc(Cl)cc1Cl | -14.8
CC1(C)Cc2ccccc2-c2nnc(-c3ccc4ccccc4n3)n21 | 7.03
COc1cccc(CN2CCN(C(=O)c3ccco3)CC2)c1OC | -9.75
COC(=O)C[C@H]1c2ccc(C(F)(F)F)cc2S(=O)(=O)N1Cc1ccccc1 | -42.6
CC(C)Cc1nnc(NS(=O)(=O)c2ccc([N+](=O)[O-])cc2)s1 | 10.5
COc1cc2c(cc1OC)CN(C(=O)CCCOc1ccc(Cl)cc1Cl)CC2 | 1.39
CCN(CC)S(=O)(=O)c1cccc(NC(=O)COC(=O)CCC(=O)c2ccc(F)cc2)c1 | -16
COc1ccc(C2(O)CN(c3ccc(C)cc3)C3=[N+]2CCCC3)cc1.[Br-] (stereo not drawn) | -37.5
CCn1c(SCC(=O)O)nnc1-c1ccc(S(=O)(=O)N2CCCC2)cc1 | 16.3

SMILES | hERG current change (%, negative = inhibition) at 10uM [%]
O=C(CSc1nccc(=O)[nH]1)c1c[nH]c2ccccc12 | -7.7
COc1ccc(Br)c(C(=O)NC2CCCC2)c1 | 15
COc1ccc(-c2c(-c3cccc(C)c3)oc3ccc(-c4ccc5c(c4)OCO5)cc23)cn1 | 11.3
O=C(CCN1C(=O)c2ccccc2S1(=O)=O)NCc1ccco1 | 2.94
N#Cc1cccc(NC(=O)Cn2cnc(S(=O)(=O)N3CCOCC3)c2)c1 | 6.55
CCCCN1Cc2cc(C(=O)c3cc(OC)ccc3O)cnc2NC1=O | -2.3
CC(=O)Nc1ccc(-c2sc(Nc3ccccc3)n[n+]2C)cc1.[Cl-] | 27.5
Cc1ccc(C2(C)NC(=O)N(CC(=O)Nc3ccc4c(c3)CCC4)C2=O)cc1 (stereo not drawn) | 0.491
O=C(c1cccs1)N1CCN=C1SCc1ccccc1F | 8.48
O=C(CCN1CCCC1)c1cccs1 | 13.5
COC(=O)c1c(SCC(=O)NC2CCCCC2)[nH]c2ccccc2c1=O | -0.717
CC1=C(C(=O)OCCOC(C)C)C(c2cccnc2)C2=C(CCCC2=O)N1 (stereo not drawn) | 11.4
COC(=O)N/N=C\c1cccc(OC(=O)c2cccs2)c1 | 3.14
COCCN(C(=O)CCC(=O)Nc1cc(C)on1)C(C(=O)NC(C)(C)C)c1ccc(OC)cc1 (stereo not drawn) | 21.4
Cc1cc(NC(=O)CSc2nnc(-c3ccoc3C)o2)no1 | 10.9
O=C(COc1ccc(Cl)cc1Cl)Nc1c(-c2cccs2)nc2ccccn12 | 17.4
COc1ccccc1C(=O)NCC(=O)NCCCN1CCOCC1 | 5.21
CNC(=O)COC(=O)c1ccc(NS(=O)(=O)c2ccc3c(c2)OCCO3)cc1 | 1.75
O=C1CCCc2c1[nH]c1ccc(CN3CCCCC3)cc21 | -9.21

SMILES | hERG current change (%, negative = inhibition) at 10uM [%]
O=C(c1ccco1)N1CCN(c2ncnc3c2oc2ccccc23)CC1 | -55.4
COc1ccc(C(CNC(=O)/C=C/c2c(Cl)nc3ccccn23)N(C)C)cc1 (stereo not drawn) | 4.23
COc1ccc(N(C(=O)CCl)C(C(=O)NC2CCCCC2)c2cccnc2)cc1 (stereo not drawn) | 0.893
O=c1[nH]c(Cc2ccccc2)nc2c1oc1ccccc12 | 15.7
CCN(CC)c1ccc(/C=N/N=C(N)N)c(O)c1 | -14
N#CC1=C(N)Oc2c(c(=O)oc3ccccc23)C1c1cccnc1 (stereo not drawn) | 5.62
O=c1c2ccc(Cl)cc2[nH]c(=S)n1CCCN1CCOCC1 | -22.6
COCCNC(=O)c1ccc2c(=O)n(Cc3ccco3)c(SCC(=O)Nc3ccc(OC)cc3OC)nc2c1 | 1.92
O=C(O)C1CCN(S(=O)(=O)c2ccc(N3CCC(O)CC3)c([N+](=O)[O-])c2)CC1 | 22
O=C(NCCN1CCOCC1)c1cc(-c2ccccc2)on1 | 0.876
O=C(NCc1ccco1)C1CCCN(S(=O)(=O)c2ccc(-n3cnnn3)cc2)C1 (stereo not drawn) | -61.8
CC1=NN(c2ccccc2)C(=O)/C1=C\c1ccc(Br)s1 | 12.1
CCCCN(CCCC)CCNC(=O)c1ccc2nc(-c3ccccc3NC(C)=O)c(=O)[nH]c2c1 | 24.4
COc1cc2c(c(OC)c1OC)C(=O)CC2 | 15.6
Cc1ccc(C2C3CSCC=C3C(C#N)=C(N)C2(C#N)C#N)cc1 (stereo not drawn) | -26.7
Cc1ccc(C23CC4CC(CC(C(=O)N5CCOCC5)(C4)C2)C3)cc1 | -20.3
O=C(c1nc2nc(-c3ccccc3)cc(C(F)(F)F)n2n1)N1CCOCC1 | 16.4
COc1ccccc1NC(=O)CSCc1cc(=O)n2c(C)csc2n1 | 13.5
O=C(c1ccccc1)c1nc2c(n1O)CCCCC2 | 21.9
